19 variants from the RNAGym collection of RNA variant scans (doi:10.7554/elife.90254) can be followed below.

To fix the notation:
B1: LINE1-full (parent)
chain: UACGUAGGUGGUUUUCCCCUGAUAGUGCUAAGGGGGCCUGGAAGUUUGGACUGGGCAGAGCUCAACACAGCGUGGCAAAGUGGCUGUGGCUAGACUGCCUCUCUGGAUUCCUCGUCACUCAGCAGGGCAUCUCUGAGAGAAAUGCC

Read counts are not given, so values of variants with three or more changes are uncertain.

In the data set the parent is B1. Briefly: self-cleavage, relative activity (ratio to wild type); higher = more cleavage; in vitro, sequencing; the parent is a self-cleaving ribozyme.
As to UACGUAGGUGGCUUUCCCCCGAUAGUGCUAAGGGGGCCUGGAAGUUUGGACUGGGCAGAGCUCAACACAGCGUGGCAAAGUGGCUGUGGCUGGACUGCCUCUCUGGAUUCCUCGUCACUCAGCAGGGCAUCCCUGAGAGAAGUGCC [U12C U20C A92G U132C A142G], the self-cleavage was 0. Under UACGUAGGUGGCUUUCCCCUGAUAGUGCUAAGGGGGCCUGGAAGCUAGGACUGGGCAGAGCUCAACACAGCGUGGCAAAGUGGCUGUGGCUAGGCUGCCUCUCUGGAUUCCUCGUCACUCAGCAGGGCAUCCCUGAGAGAAAUGCC [U12C U45C U47A A94G U132C] stands 0; under UACGUAGGUGGCUUUCCCCUGAUAGAGCUAAGGGGGCCUGGAAGUUUGGACUGGGCAGAGCUCAACACAGCGUGGCAAAGUGGCUGUGGCUAGACUGCCUCUCUGGAUUCCUCGUCACUCAGCAGGGCAUCUCUGAGAGAGGUGCC [U12C U26A A141G A142G], 1.5. The value for UACGUAGGUGGCUUUCCCCUGAUAGAGCUAAGGGGGCCUGGAAGUUCGGACUGGGCAGAGCUCAACACAGCGUGGCAAAGUGGCUGUGGCUAGACUGCCUCUCUGGAUUCCUCGUCACUCAGCAGGGCGUCUCUGAGAGAAAUGCC [U12C U26A U47C A129G] was 1.09; that for UACGUAGGUGGCUUUCCCCUGACGGUGCUAAGGGGGCCUGGAAGUUUGGACUGGGCAGAGCUCAACACAGCGUGGCAAAGUGGCUGUGGCUAGACUGCCUCUCUGGAUUCCUCGUCACUCAGCAGGGCAUCUCUGAGAGAAAUGCC [U12C U23C A24G] was 1.06. Under UACGUAGGUGGCUUUCCCCGGAUAGUGCUAAGGGGGCCUGGAAGCUUGGACUGGGCAGAGCUCAACACAGCGUGGCAAAGAGGCUGUGGCUAGACUGCCUCUCUGGAUUCCUCGUCACUCAGCAGGGCAUCUCUGAGAGAAAUGCC [U12C U20G U45C U81A] stands 1.5.

On to UACGUAGGUGGCUUUCCCCCGAUAGUGCUAAGGGGGCCUGGAAGUAUGGACUGGGUAGAGCUCAACACAGCGUGGCAAAGUGGCUGUGGCUAGACUGCCUCUCUGGAUUCCUCGUCACUCAGCAGGGCAUCUCUGAGAGAAAUGCC [U12C U20C U46A C56U], for which the self-cleavage was 0.22. The value for UACGUAGGUGGCUUUCCCCUGAUAGAGCUAAGGGGGGCUGGAAGUUUGGACUGGGCAGAGCUCAACACAGCGUGGCGAAGUGGCUGUGGCUAGACUGCCUCUCUGGAUACCUCGUCACUCAGCAGGGCAUCUCUGGGAGAAAUGCC [U12C U26A C37G A77G U109A A136G] was 1.72; that for UACGUAGGUGGCUUUCCCCUGAUAGUGCCAAGGGGGCCUGGAAGUUUGGACUGGGCUGAGCUCAACACAGCGUGGCAUAGUGGCUGUGGCUAGACUGCCUCUCUGGAUUCCUCGUCACUCAGCAGGGCAUCUCAGAGAGUAAUGCC [U12C U29C A57U A78U U134A A140U] was 0.38.

On to UACGUAGGUGGCUUUCCCCCGAUAGUGCUAAGGGGGCCUGGAAGUUUGGACUGGGCAGAGCUCAACACAGCGUGGCAAAGUGGCUGUGGCUAGACUGCCUCUCUGGAUUCCUCGUCACUCAGCAGGGCAUCUCUGAGAGAAACGCC [U12C U20C U143C], for which the self-cleavage came out at 1.13.

Regarding UACGUAGGUGGCUUUCCCCUGAUAGUGCUAAGGGGGCCCGGAAGUUUGGACUGGGCAGAGCUCAACACAGCGUGGCAAAGUGGCUGUGGCUAGACUGCCUCUCUGGAUUCCACGUCACUCAGCAGGGCAUCUCUGAGAGAAAUGCC [U12C U39C U112A], the self-cleavage was 1.24. Regarding UACGUAGGUGGCUUUCCCCUGAUAGGGCUAAGGGGGCCUGGAAGUUUGGACUGGGCACAGCCCAACACAGCGUGGCAAGGUGGCUGUGGCUAGACUGCCUCUCUGGAUUCCUCGUCACUCAGCAGGGCAUCUCUGAGAGAAAUGCC [U12C U26G G58C U62C A79G], the self-cleavage was 0. Under UACGUAGGUGGCUUUCCCCUGAUAGUGCUAAGGGGGCCUGGAAGUAUGGACUGGGCAGUGCUCAACACAGCGUGGCAAAGUGGCUGUGGCUAGACUGCCCCUCUGGACUCCUCGUCACUCAGCAGGGCAUCUCUGAGAGAAAUGCC [U12C U46A A59U U100C U108C] stands 1.16; under UACGUAGGUGGCUUGCCCCUGAUAGUGCUAAGGGGGCCUGGAAGUUUGGACUGGGCAGAGCUCAACACAGCGUUGCAAAGUGGCUGUGGCUAGACUGCCUCUCCGGAUUCCUCGUCACUCAGCAGGGCAUCUCUGAGAGAAAUGCC [U12C U15G G74U U104C], 0.67. Under UACGUAGGUGGCUUUCCCCUGAUAGUGCUAAGGGGGCCUGGAAGAUUGGACUGGGCAGAGCUCAACACAGCGUGGCAAAGUGGCUGUGGCUAGUCUGCCUCUCUGGAUUCCUCGUCUCUCAGCAGGGCAUCUCUGAGAGAAAUGCC [U12C U45A A94U A117U] stands 0.39.

UACGUAGGUGGCUUUCCCCUGAUAGCGCUAAGGGGGCCUGGAAGUUUGGACUGGGCAGAGCUCAACACAGCGUGGCAAAGUGGCUGUGGCUAGACUGCCUCUCUGGAUUCCUCGUCACACAGCAUGGCAUCUCUGGGAGAAAUGCC [U12C U26C U119A G125U A136G]: the self-cleavage came to 1.33. Take UACGUAGGUGGCUUUCCCCUGAUAGUGCCAAGGGGGCCUGGAAGUCGGGACUGGGCAGAGCUCAACACAGCGUGGCAGAGUGGCUGUGGCUAGACUGCCUCACUAGAUUCCUCGACACUCAGUAGGGCAUCUCUGAGAGAAAUGCC [U12C U29C U46C U47G A78G U102A G105A U115A C123U]: the self-cleavage was determined as 1.31. As for UACGUAGGUGGCUUUCCCCUGAUAGUGCUAAGGGGGCCAGGAAGUUUGGACUGGGCAGAGCUCAACACAGCGUGGCAAAGUGGCUGUGGCUAGACUGCCUCUCUGGAUUCCUCGUCACUCAGCAGGGCACCUCUGAGAGAAAUGCC [U12C U39A U130C], the self-cleavage was determined as 1.84. Under UACGUAGGUGGCUUUCCCCUGAUAGUGCAAAGGGGGCCUGGAAGUUUGGACUGGGCAGAGCUCAACACAGCGAGGCAAAGUGGCUGUGGCUAGACUGCCUCUCAGGAUUCCUCGUCACUCAGUAGGGCAUCUCUGAGAGAAAUGCC [U12C U29A U73A U104A C123U] stands 1.59.
